# Experimental data taken from PubChem BioAssay AID624202 (National Center for Advancing Translational Sciences (NCATS), 2012).
# Hit rate of the full screen: of about 380,000 compounds, about 4,000 (1.1%) were called active. The shares of active, inactive and inconclusive entries below differ from those in the screen. Calls come from the whole dose curve; as a rule, active = well fitted activation curve with a large enough effect; inconclusive = small, poorly fitted or top-dose-only effect; inactive = no such curve, though single readings can be large or run the other way. A potency beside an inconclusive call is a rough fit, not a confirmed value.
# Test: qHTS Assay to Identify Small Molecule Activators of BRCA1 Expression; note: nearly all actives have a fitted effect of over 80% in size
# Details: MCF7-BRCA1-FFLuc reporter, luminescence, 48 h; activation: at 46.1 µM (top of the series), scaled: vehicle 0%, 10 µM genistein 100% unless noted
# Procedure, shortened: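 Luminescence from a BRCA1-driven firefly luciferase in MCF7 cells was read after 48 h compound exposure at 37 C. Data normalized against DMSO and a 10microM genistein activation control, then curve-fitted across the titration.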
# Potency is the fitted concentration of half-maximal effect; tags give direction and shape of the fitted curve.
SMILES,Potency,activation
CN1CCN(S(=O)(=O)c2ccc(Cc3ccc(S(=O)(=O)N4CCN(C)CC4)cc3)cc2)CC1,inactive,
CC(=NNC(=S)Nc1ccc(C)cc1)c1ccccn1,,inconclusive: -79.8% [activator]
c1csc(-c2cnc3ccccc3n2)c1,"inconclusive: 11.2 µM [activator, partial curve, poor fit]",
CC1=C(C(=O)OC2CCCCC2)C(c2ccco2)C2=C(CC(C)(C)CC2=O)N1 (configuration not stated),inactive,
O=C(Oc1ccc2ccccc2c1Cl)N1CCCCCC1,"inconclusive: 0.501 µM [activator, full curve, poor fit]",
c1ccc(CN2CCN(c3cnc4ccccc4n3)CC2)cc1,"inconclusive: 11.2 µM [activator, partial curve, poor fit]",
Cn1c(SCc2nc3ccccc3s2)nnc1-c1ccc2c(c1)OCO2,"inconclusive: 35.5 µM [activator, single point]",
COc1ccccc1N1CCN(/N=C/C=C\c2ccco2)CC1,active: 2.82 µM,
COc1ccc(S(=O)(=O)N2CCOCC2)cc1NC(=O)COc1cccnc1[N+](=O)[O-],inactive,
O/C(=C\c1nc2ccccc2[nH]1)c1cccs1,active: 12.6 µM,
NC(=O)c1ccc(-n2nc(C(F)(F)F)c3c2CCCC3)cc1,"inconclusive: 12.6 µM [activator, single point]",
C/C(=N/NC(=O)c1ccc2c(c1)OCO2)c1cccc([N+](=O)[O-])c1,active: 5.01 µM,
O=C(Cc1ccc2cccnc2c1)c1ccc(O)cc1O,"inconclusive: 7.08 µM [activator, partial curve, poor fit]",
CCCCOC(=O)c1ccc(-c2ccc(/C=N/NC(=S)NCC)o2)cc1,"inconclusive: 11.2 µM [activator, partial curve, poor fit]",
CCCNC(=O)Nc1nc2ccccc2s1,"inconclusive: 1.58 µM [activator, partial curve, poor fit]",
CC1Cc2ccccc2N1S(=O)(=O)c1cccs1 (configuration not stated),inactive,
CC(=O)Nc1cc(NC(C)=O)c(N=Nc2ccccc2)cc1C,active: 3.55 µM,
CC(C)(C)c1ccc(C(=O)NCc2ccccc2)cc1,"inconclusive: 15.8 µM [activator, partial curve, poor fit]",
O=C(Nc1ccc(Br)cc1)Nc1ccccc1F,"inconclusive: 2 µM [activator, full curve, poor fit]",
COc1cccc(/C=N/n2c(N)nc3ccccc32)c1OC,active: 10 µM,
O=C(CSc1cn(CCNC(=O)c2c(F)cccc2F)c2ccccc12)Nc1ccc(F)cc1,inactive,
Cc1occc1C(=O)NCCc1cccc(Cl)c1,"inconclusive: 10 µM [activator, partial curve, poor fit]",
COc1ccc(-n2c(COc3cccc(C)c3)n[nH]c2=S)cc1,inactive,
N=c1c(S(=O)(=O)c2ccccc2)cc2c(=O)n3ccccc3nc2n1C1CCCC1,inactive,
CCc1cccc(NC(=O)Nc2cccs2)c1,active: 11.2 µM,
O=C(NNc1ncnc2ccccc12)c1cccc(Cl)c1,"inconclusive: 2 µM [activator, partial curve, poor fit]",

SMILES,Potency,activation
O=C1NN(c2cccc(Br)c2)C(=O)/C1=C/c1ccc(-c2cc([N+](=O)[O-])ccc2O)o1,inactive,
CCCCC(=O)Nc1ccc2c(c1)OCCO2,active: 7.08 µM,
COc1ccc(/C=N/OC(=O)Nc2ccccc2OC)cc1,"inconclusive: 0.631 µM [activator, full curve, poor fit]",
O=C(CCS(=O)(=O)c1ccc(Cl)cc1)Nc1nc(-c2cccnc2)cs1,inactive,
Cc1ccc(C(=O)CSc2nc3ccccc3c(=O)n2N)o1,"inconclusive: 1 µM [activator, full curve, poor fit]",
Cc1ccc(OC(=O)c2cccc(S(=O)(=O)N(C)C)c2)c(-n2nc3ccccc3n2)c1,"inconclusive: 12.6 µM [activator, partial curve, poor fit]",
Cc1ccc(C(=O)Nc2ccc3nc(C)sc3c2)s1,"inconclusive: 35.5 µM [activator, single point]",
Cn1cccc1C(=O)C(=O)Nc1ccccc1,active: 7.08 µM,
Cc1[nH]nc(Nc2ccc(C(C)C)cc2)c1[N+](=O)[O-],"inconclusive: 2.51 µM [activator, partial curve, poor fit]",
C/C(=N\NC(=O)COc1ccccc1F)c1cc2ccccc2o1,"inconclusive: 11.2 µM [activator, partial curve, poor fit]",
CC#CC(=O)N1CCCC(Cc2cccc(OC)c2)(C(=O)OCC)C1 (configuration not stated),"inconclusive: 31.6 µM [activator, single point]",
COc1ccc(NC(=O)c2nc3nc(C)cc(C(F)F)n3n2)c(C)c1,inactive,
CC(/C=N/NC(=O)c1ccccn1)=C\c1ccco1,"inconclusive: 3.55 µM [activator, partial curve, poor fit]",
CN(C)c1ccc(/C=C2\C=Cc3ccccc32)cc1F,"inconclusive: 2.82 µM [activator, partial curve, poor fit]",
Fc1ccc(CN2CCSCC2)cc1Br,inactive,
Cc1cc(C(=O)NCCc2ccccc2)ccc1[N+](=O)[O-],active: 6.31 µM,
COc1ccc(/C=C/c2noc(-c3ccccc3O)n2)cc1,"inconclusive: 2.51 µM [activator, partial curve, poor fit]",
Cc1c(-c2cc(Br)ccc2O)nc2cc3c(cc2c1C)OCO3,"inconclusive: 11.2 µM [activator, single point]",
CCOC(=O)c1sc(NC(=O)/C=C/c2c(F)cccc2Cl)nc1C,"inconclusive: 20 µM [activator, partial curve, poor fit]",
O=C(Nc1ccc2c(c1)CCC2)c1ccc(Br)s1,"inconclusive: 0.501 µM [activator, full curve, poor fit]",
Cn1cc(-c2nnc(-c3ccccc3)o2)c2ccccc21,inactive,
CCOC(=O)c1c(C)n(CCNC(C)=O)c2ccc(OC)cc12,inactive,
O=C(O)c1ccc(-c2nnc(-c3cccc(Br)c3)o2)cc1,active: 2.82 µM,
Cc1ccc(/C(O)=C2/C(=O)C(=O)N(c3ccccn3)C2c2ccc(F)cc2)cc1 (configuration not stated),"inconclusive: 14.1 µM [activator, single point]",
CCc1ccc(NC(=O)Nc2cccc(OC)c2)cc1,"inconclusive: 4.47 µM [activator, partial curve, poor fit]",
COc1ccc(CNCc2cccc3ccccc23)cc1,inactive,

SMILES,Potency,activation
O=S(=O)(Cc1ccccc1)N1CCN(c2nc(-c3cccs3)nc3ccccc23)CC1,inactive,
O=C(CSc1nnc(-c2ccccc2Cl)o1)N1CCOCC1,"inconclusive: 2.24 µM [activator, full curve, poor fit]",
CCOC(=O)c1ccc(NC(=O)CC2SCCNC2=O)cc1 (configuration not stated),"inconclusive: 7.08 µM [activator, partial curve, poor fit]",
Cc1cc(NC(=O)COc2ccc3oc4ccccc4c3c2)no1,inactive,
COC(=O)c1ccc(/C=C/c2ccc3cccc(OC(C)=O)c3n2)cc1,"inconclusive: 2.82 µM [activator, full curve, poor fit]",
CCOc1ccc(NC(=S)N(CCc2c(C)[nH]c3ccc(C)cc23)Cc2ccco2)cc1,inactive,
O=C(Nc1ncc(Cc2ccccc2Cl)s1)c1ccc([N+](=O)[O-])cc1,inactive,
COc1ccc2[nH]c(C(=O)Nc3ccc(C)c(F)c3)cc2c1,active: 3.55 µM,
Cc1cc(Cl)ccc1OCc1nc(-c2ccncc2)no1,"inconclusive: 4.47 µM [activator, full curve, poor fit]",
Clc1ccc(-c2cn3nc4c(nc3n2)CCCC4)cc1,,inconclusive: -39.5% [activator]
O=C(N/N=C/C=C/c1ccccc1[N+](=O)[O-])c1cccnc1,inactive,
Cc1ccc(-c2nc3cc(Cl)ccc3o2)cc1NC(=O)COc1ccccc1C,inactive,
CCO[C@@H]1OC(C(=O)N2CCOCC2)=C[C@H](c2ccccc2)[C@H]1CCCO,inactive,
Nc1c(C(=O)N/N=C/c2ccccc2)cnn1-c1ccccc1,"inconclusive: 2.24 µM [activator, full curve, poor fit]",
CN(C)/C=C1\Oc2ccc3ccccc3c2C1=O,active: 7.08 µM,
CCOC(=O)c1cnc2cc(-c3ccc(Cl)cc3)nn2c1N,"inconclusive: 1.58 µM [activator, full curve, poor fit]",
COc1ccc(NC(=O)c2cccc(N3C(=O)C4C5C=CC(C5)C4C3=O)c2)c(OC)c1 (configuration not stated),inactive,
CCN1C(=O)c2ccccc2Sc2ccc(C(=O)NCCCN3CCCCC3)cc21,inactive,
CC1CN=C(NC(=O)c2cccc([N+](=O)[O-])c2)S1 (configuration not stated),"inconclusive: 0.794 µM [activator, full curve, poor fit]",
O=C(NCC1CC1)NC(=O)c1ccccc1F,active: 12.6 µM,
CCOc1ccc(CC2S/C(=N/N=C/c3ccco3)NC2=O)cc1 (configuration not stated),inactive,
Cc1cccc(NC(=O)/C=C/c2ccc3c(c2)OCO3)n1,"inconclusive: 0.631 µM [activator, full curve, poor fit]",
CCn1cc(/C=C/C(=O)c2ccc(O)cc2)c(C)n1,"inconclusive: 20 µM [activator, single point]",
CCOC(=O)C1(Cc2cccc(OC)c2)CCCN(C(=O)c2ccccc2C)C1 (configuration not stated),"inconclusive: 12.6 µM [activator, partial curve, poor fit]",
Cc1c(C(=O)O)cccc1-c1ccc(/C=N/n2cnnc2)o1,inactive,
